Assay results published in PubChem BioAssay AID504832 (National Center for Advancing Translational Sciences (NCATS), 2011).
The whole screen tested about 310,000 compounds, of which about 18,000 (5.8%) were called active. The inconclusive results got no clear call from the source; some entries with a clear call stand among them for comparison. Calls follow the shape of the dose curve; as a rule, active = well fitted inhibition curve with a large enough effect; inconclusive = small, poorly fitted or top-dose-only effect, or another doubt; inactive = no such curve, though single readings can be large or run the other way. Potencies of inconclusive entries are left out as doubtful fits.

test: Primary qHTS for delayed death inhibitors of the malarial parasite plastid, 48 hour incubation; conditions: P. falciparum luciferase growth in erythrocytes; series mostly up to 28.7 µM; activity change, negative = inhibition: at the top concentration
In short: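 Luminescence readout; reporter = integrated firefly luciferase in P. falciparum. RBC culture at 2% hematocrit, 0.1% parasitemia final, 37 C/5% CO2; decreased signal taken as growth inhibition.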
% is scaled to controls: 0 for no effect and ±100 for the full control effect; potency is read from the fitted curve at half-maximal effect; tags tell the direction and shape of the fitted curve.

Structure (SMILES) | Potency | activity change, negative = inhibition
COc1cc(C(=O)OCC(=O)c2cc(C)n(CC3CCCO3)c2C)cc(OC)c1C (stereo not given) | inconclusive [inhibitor, single point] | 
O=S(=O)(NC1c2cccc3cccc(c23)C1Sc1ncccn1)c1ccccc1 (stereo not given) | inconclusive [inhibitor, single point] | 
CC(Cc1ccccc1)NCc1ccccc1O (stereo not given) | inconclusive [inhibitor, partial curve, poor fit] | 
COc1ccc(CC(=O)Nc2sc(Cc3ccccc3)c(C)c2C(N)=O)cc1 | inconclusive [inhibitor, partial curve] | 
O=C(CNC1=NCCC1)c1ccc(Cl)cc1 | inconclusive [inhibitor, partial curve, poor fit] | 
C=CCSc1nnc(CNS(=O)(=O)c2ccc(C)cc2)n1C | inconclusive [inhibitor, partial curve, poor fit] | 
O=C(COC(=O)c1c2c(nc3ccccc13)/C(=C\c1cccs1)CCC2)Nc1ccccc1Cl | inconclusive [inhibitor, single point] | 
CCN(CC)S(=O)(=O)c1ccc(N2CCOCC2)c(NC(=O)C23CC4CC(CC(Cl)(C4)C2)C3)c1 | active: 8.28 µM | 
Cc1ccc(S(=O)(=O)N2CCN(C(=O)[C@H](Cc3ccccc3)NC(=O)c3ccco3)CC2)cc1C | inconclusive [inhibitor, single point] | 
Cc1oc(S(=O)(=O)N2CCCCC2)cc1NC(=O)Nc1ccc(Cl)cc1 | inconclusive [inhibitor, partial curve, poor fit] | 
CCc1ccc(N(CC(=O)NC(C)(C)C)C(=O)CNC(=O)c2cccs2)cc1 | inconclusive [inhibitor, partial curve] | 
O=c1[nH]c(CSc2nnc(COc3ccccc3)n2-c2ccccc2)nc2ccccc12 |  | inactive: -14.6%
O=S(=O)(c1ccc2ccccc2c1)N1CCN(C(=S)Nc2ccc(F)c(Cl)c2)CC1 | active: 1.04 µM | 
Cc1ccc(NC(=O)c2ccc(F)c(S(=O)(=O)N3CCOCC3)c2)cc1F | inconclusive [inhibitor, single point] | 
CC1=C(C(=O)OC2CCCC2)C(c2coc3ccc(C)cc3c2=O)C2=C(CCCC2=O)N1 (stereo not given) | inconclusive [inhibitor, partial curve] | 
O=C(N/N=C/c1ccccc1[N+](=O)[O-])c1ccc(COc2ccccc2-c2ccccc2)cc1 | inconclusive [inhibitor, single point] | 
CC1CN(C(=O)CSc2nnc(-c3cccs3)n2N)CC(C)O1 (stereo not given) |  | inactive: 6.99%
Nc1nc(SCc2ccccc2Cl)nc2nc3c(cc12)CCCC3 | inconclusive [inhibitor, partial curve, poor fit] | 
CC1CCN(c2ccc3nnc(CCC(=O)Nc4ccc(F)cc4)n3n2)CC1 | inconclusive [inhibitor, single point] | 
CCN1C(=S)N[C@@H](c2cccs2)C(C(=O)OC)=C1C | inconclusive [inhibitor, single point] | 
CCNc1nc(C#N)nc2c1ncn2-c1cc(F)cc(F)c1 | active: 1.65 µM | 
COc1cc(OC)cc(C(=O)NCc2ccc3[nH]c(C)cc3c2)c1 | active: 9.28 µM | 

Structure (SMILES) | Potency | activity change, negative = inhibition
CCOCCCn1c(SC(C)C(=O)NCC2CCCO2)nc2sc(C)c(C)c2c1=O (stereo not given) | inconclusive [inhibitor, partial curve, poor fit] | 
N#Cc1c(SC(C(=O)O)c2ccccc2)nc2c(c1-c1cccs1)CCCC2 (stereo not given) |  | inactive: -12.7%
COc1ccc(OC)c(CCNC(=O)c2cccc(NC(=O)C3=C(C)OCCS3)c2)c1 | inconclusive [inhibitor, partial curve] | 
Clc1ccc(C(c2ccccc2Cl)C(Cl)Cl)cc1 (stereo not given) | active: 10.4 µM | 
O=c1cc(-c2ccc([N+](=O)[O-])cc2)c2cc3c(cc2[nH]1)OCCO3 | inconclusive [inhibitor, full curve, poor fit] | 
COc1ccc(C(CCN2CCN(c3ccccc3)CC2)c2c(OC)cc(OC)c3c(-c4ccccc4)cc(=O)oc23)cc1 (stereo not given) | active: 3.29 µM | 
CCN1C(=O)c2cccc3c(S(=O)(=O)N(C(=O)c4cccnc4)c4ccc(OC)cc4)ccc1c23 | inconclusive [inhibitor, partial curve] | 
CC(C)(C)C(=O)Nc1nc2c(s1)COc1ccccc1-2 | inconclusive [inhibitor, single point] | 
O=Cc1cn[nH]c1-c1ccccc1 |  | inactive: 26.5%
CCCCCCCN1CCC(=O)N([C@H](CO)CC(C)C)CC1 |  | inactive: 54.6%
CN(C)c1ccc(C(=C2C=CC(=[N+](C)C)C=C2)c2ccccc2)cc1 | active: 7.57 µM | 
O=C(C1CCCCN1S(=O)(=O)c1ccccc1[N+](=O)[O-])N1CCCC1 (stereo not given) |  | inactive: -16.6%
O=C(Nc1ccc(-c2nc3cccnc3s2)cc1)c1ccc(Br)o1 | inconclusive [inhibitor, single point] | 
COc1ccc(F)c(CN2CCCC(CNS(=O)(=O)c3cccc4cccnc34)C2)c1 (stereo not given) | inconclusive [inhibitor, single point] | 
Oc1ccccc1C1=NN(c2ccccc2)C(c2ccc(F)cc2)C1 (stereo not given) | inconclusive [inhibitor, single point] | 
NC(=O)c1cc([N+](=O)[O-])ccc1NCc1ccccn1 | inconclusive [inhibitor, single point] | 
CCC(=O)NC(=S)Nc1ccc(NC(=O)c2ccc(Br)o2)cc1 | inconclusive [inhibitor, partial curve, poor fit] | 
CCOP(=O)(OCC)C(Nc1cccc([N+](=O)[O-])c1)c1ccc(OC)cc1 (stereo not given) | inconclusive [inhibitor, full curve] | 
COc1ccc([N+](=O)[O-])cc1NC(=O)C(C)Sc1nc(C)c(C)c(C)n1 (stereo not given) | inconclusive [inhibitor, single point] | 
Cc1cnc(NC(=O)c2sc(Nc3ccccc3)nc2N)o1 |  | inactive: 29.3%
COc1ccc(NC(=O)c2sc3nc(Cc4ccccc4)cc(C(F)(F)F)c3c2N)cc1OC | inconclusive [inhibitor, single point] | 
O=C(Cn1cnc(S(=O)(=O)N2CCOCC2)c1)Nc1ccc(OC(F)(F)F)cc1 |  | inactive: 8.38%

Structure (SMILES) | Potency | activity change, negative = inhibition
CCc1ccc(-c2nc(SCC(=O)NC3CC3)n[nH]2)cc1 |  | inactive: -2.27%
CCC(C)C1O[C@]2(C=CC1C)CC1CC(C/C=C(\C)[C@H](OC3CC(OC)C(O[C@H]4CC(OC)[C@@H](O)C(C)O4)C(C)O3)[C@@H](C)/C=C/C=C3\COC4C(O)C(C)=C[C@H](C(=O)O1)[C@@]34O)O2 (stereo not given in full) | active: 15.1 µM | 
O=C(Nc1ccccc1C(F)(F)F)Nc1cccc2ccccc12 |  | inactive: -6.98%
COC(=O)c1ccc(C(NC(=O)OCc2ccccc2)/C(C)=C/[C@@H](C)C(=O)NCc2ccc(OC)c(OC)c2)cc1 (stereo not given in full) | inconclusive [inhibitor, partial curve] | 
O=C(c1nc[nH]c1C(=O)N1CCc2ccccc2C1)N1CCc2ccccc2C1 |  | inactive: 41%
CC(C)NC(=O)NC(=O)CSc1ccc(S(=O)(=O)N2CCOCC2)cn1 | inconclusive [inhibitor, partial curve, poor fit] | 
O=C(c1cccs1)N1CCC(c2nc3c(nnn3Cc3cccc(Cl)c3)c(=O)[nH]2)CC1 | active: 4.65 µM | 
Cc1cnc(CNC(=O)CC2C(=O)NCCN2Cc2ccccc2F)cn1 (stereo not given) | inconclusive [inhibitor, partial curve] | 
N#Cc1c(N)n(-c2cccc(O)c2)c2nc3ccccc3nc12 | inconclusive [inhibitor, partial curve, poor fit] | 
Cc1ccc(Cn2c(=N)c(C#N)cc3c(=O)n4cccc(C)c4nc32)cc1 |  | inactive: 9.76%
COc1ccccc1N1CCN(C(=O)c2ccc(NS(=O)(=O)c3ccc(C)cc3)cc2)CC1 | inconclusive [inhibitor, partial curve, poor fit] | 
Cc1ccc(N(CC(=O)NCCSc2nc3ccccc3s2)S(=O)(=O)c2ccccc2)c(C)c1 | inconclusive [inhibitor, single point] | 
COc1ccc(S(=O)(=O)N2CCN(c3nn(C)c(=O)n(C)c3=O)CC2)cc1 |  | inactive: 4.2%
C=CCn1cc(C(=O)NCCCOCC)c(=O)c2cc(S(=O)(=O)N(CC)CC)ccc21 | inconclusive [inhibitor, single point] | 
CNc1ccc(OC)cc1-n1cnc(-c2ccc([N+](=O)[O-])cc2)c1 | inconclusive [inhibitor, full curve, poor fit] | 
COc1ccc(C(C(=O)NCc2ccccc2)N(Cc2cccnc2)C(=O)c2snc(C(N)=O)c2N)cc1OC (stereo not given) | inconclusive [inhibitor, full curve, poor fit] | 
CCOc1cc(CNCCc2c[nH]c3ccccc23)cc(Cl)c1OC | inconclusive [inhibitor, partial curve] | 
COc1ccc(NC(=O)C2CCCN(S(=O)(=O)c3ccc(C)cc3)C2)cc1OC (stereo not given) | inconclusive [inhibitor, partial curve] | 
CCN1CCN(c2cc(C)c3cc(NC(=O)CCC(=O)N4CCN(c5ccccc5)CC4)ccc3n2)CC1 | inconclusive [inhibitor, single point] | 
N#C/C(=C/c1ccccc1)c1nn(CCO)c(N)c1C#N |  | inactive: 15.9%
O=C(Nc1ccc(Cl)cc1C(=O)NCC1CCCO1)c1ccc(Cl)cc1Cl (stereo not given) | active: 8.28 µM | 
